# Where “and” joins values, the source holds several entries; their conditions need not be identical. Equal values may be shown once. The shares of active, inactive and inconclusive entries below differ from those in the screen. For some assays here: Potencies of inconclusive entries are doubtful fits and often do not repeat. Calls of active or inactive are those of the source. Unless noted, calls follow the shape of the dose curve; as a rule, active = well fitted curve in the direction sought with a large enough effect in the repeat runs; inconclusive = weak or mixed curves; inactive = no such curve, though single readings can be large; an effect the other way counts as inactive or inconclusive.
# Columns and labels:
# [1] = qHTS assay to identify small molecule agonists of H2AX (AID 1224845; active = well fitted activation curve with a large enough effect in the signal ratio in the repeat runs, not every such curve was filed as active; inconclusive = weak or mixed curves; the % refers to the signal ratio; as to activation (H2AX phosphorylation): % is scaled to controls: 0 for no effect and ±100 for the full control effect); details: CHO-K1 phospho-H2AX Ser139 HTRF, 3 h; activation (H2AX phosphorylation): at 154 µM (top of the series) unless noted
# Procedure, shortened: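 Phospho-H2AX Ser139 measured by HTRF (ex 320 nm; em 665 and 620 nm) after 24 hr antibody incubation. Compounds, 15 concentrations, 0.76% DMSO, were applied to CHO-K1 cells for 3hr at 37C before lysis.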
# [2] = qHTS assay to identify small molecule agonists of the hypoxia (HIF-1) signaling pathway (AID 1224846; active = well fitted activation curve with a large enough effect in the signal ratio in the repeat runs, not every such curve was filed as active; inconclusive = weak or mixed curves; the % refers to the signal ratio; as to activation: % is scaled to controls: 0 for no effect and ±100 for the full control effect); details: HRE-bla ME-180 cells, beta-lactamase ratio, 17 h; activation: at 76.8 µM (top of the series) unless noted
# Procedure, shortened: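 Compounds from the Tox21 10K library, dissolved in DMSO, are tested for induction of a hypoxia response element–controlled beta-lactamase reporter in ME-180 cells. Exposure lasts 17 hrs at 37C after a 5 hr settling period, followed by CCF4-AM FRET substrate.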
# [3] = qHTS assay to identify small molecule agonists of H2AX - cell viability counter screen (AID 1224847; calls by dose curve; also: nearly all actives have a fitted effect of over 30% in size); details: CHO-K1 viability, CellTiter-Glo luminescence, 3 h; series mostly up to 154 µM
# Procedure, shortened: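 CHO-K1 cells plated overnight at 37C, then exposed 3 h at 37C to compounds at 15 concentrations (0.76% DMSO final). Viability by CellTiter-Glo luminescence after 30 min at room temperature.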
# [4] = qHTS RealTime-Glo MT Cell Viability Assay in HepG2 cells - 24 hour (AID 1224867); details: RealTime-Glo luminescence; series mostly up to 76.8 µM; also: nearly all actives have a fitted effect of over 50% in size
# Procedure, shortened: (§1)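 HepG2 cells (600/well) were dispensed with RealTime-Glo reagents, incubated 5 h at 37 °C, then treated with compounds in DMSO for up to 40 h. Nonlytic NanoLuc luminescence reflecting viable cells was read at each stated time point.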
# [5] = qHTS RealTime-Glo MT Cell Viability Assay in HepG2 cells - 8 hour (AID 1224873); details: RealTime-Glo luminescence; series mostly up to 76.8 µM; also: nearly all actives have a fitted effect of over 55% in size
# Procedure, shortened: (§2)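 Real-time viability: cells seeded at 600 per well together with NanoLuc and cell-permeant prosubstrate, compounds added after 5 h incubation. Luminescence tracked at 0, 8, 16, 24, 32 and 40 h of exposure.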
# [6] = qHTS RealTime-Glo MT Cell Viability Assay in HEK293 cells - 40 hour (AID 1224874); details: RealTime-Glo luminescence; max response: active compounds read low; also: nearly all actives have a fitted effect of over 50% in size; as to max response: % is scaled to controls: 0 for no effect and ±100 for the full control effect
# Procedure, shortened: (§3)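 Real-time viability in HEK293: signal arises when living cells convert a prosubstrate for NanoLuc in the medium, so luminescence tracks viable cell number. Compound (23 nL, DMSO) added 5 h post-seeding; kinetic reads at 0–40 h, 37 C.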
# [7] = qHTS RealTime-Glo MT Cell Viability Assay in HEK293 cells - 32 hour (AID 1224868); details: RealTime-Glo luminescence; series mostly up to 76.8 µM; also: nearly all actives have a fitted effect of over 50% in size
# Procedure, shortened: (§4)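 HEK293 cells seeded with NanoLuc/prosubstrate reagent, rested 5 h at 37 C, then dosed and kept at 37 C up to 40 h. Nonlytic real-time luminescence from viable cells read at 0, 8, 16, 24, 32 and 40 h.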
# [8] = qHTS RealTime-Glo MT Cell Viability Assay in HepG2 cells - 40 hour (AID 1224870); details: RealTime-Glo luminescence; series mostly up to 76.8 µM; also: nearly all actives have a fitted effect of over 50% in size
# Procedure, shortened: as §2
# [9] = A CellTox Green Cytotoxicity Assay to monitor cytotoxicity in HEK293 cells - 40 hour (AID 1224871); details: CellTox Green fluorescence; series mostly up to 76.8 µM; also: nearly all actives have a fitted effect of over 45% in size
# Procedure, shortened: (§5)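 Cells (HEK293, 600/well) and dye reagent are dispensed together. After 5 h at 37 C, 23 nL compound is pinned in. Plates stay at 37 C for 40 h with fluorescence read at 0h, 8h, 16h, 24h, 32h and 40h.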
# [10] = qHTS RealTime-Glo MT Cell Viability Assay in HEK293 cells - 16 hour (AID 1224872); details: RealTime-Glo luminescence; series mostly up to 76.8 µM; also: nearly all actives have a fitted effect of over 50% in size
# Procedure, shortened: as §4
# [11] = qHTS RealTime-Glo MT Cell Viability Assay in HepG2 cells - 32 hour (AID 1224877); details: RealTime-Glo luminescence; series mostly up to 76.8 µM; also: nearly all actives have a fitted effect of over 55% in size
# Procedure, shortened: as §1
# [12] = A CellTox Green Cytotoxicity Assay to monitor cytotoxicity in HEK293 cells - 32 hour (AID 1224881); details: CellTox Green fluorescence; series mostly up to 76.8 µM; also: nearly all actives have a fitted effect of over 40% in size
# Procedure, shortened: as §5
# [13] = A CellTox Green Cytotoxicity Assay to monitor cytotoxicity in HEK293 cells - 24 hour (AID 1224875); details: CellTox Green fluorescence; series mostly up to 76.8 µM; also: nearly all actives have a fitted effect of over 45% in size
# Procedure, shortened: as §5
# [14] = A CellTox Green Cytotoxicity Assay to monitor cytotoxicity in HepG2 cells - 16 hour (AID 1224876); details: CellTox Green fluorescence; series mostly up to 76.8 µM; also: nearly all actives have a fitted effect of over 45% in size
# Procedure, shortened: (§6)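 Cells and non-lytic dye reagent are dispensed together (600 HepG2 cells/well) and incubated 5 h before DMSO compound transfer. Kinetic fluorescence is then recorded in the same wells during 40 h at 37 C.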
# [15] = qHTS RealTime-Glo MT Cell Viability Assay in HEK293 cells - 0 hour (AID 1224880); details: RealTime-Glo luminescence; series mostly up to 76.8 µM; also: nearly all actives have a fitted effect of over 45% in size
# Procedure, shortened: as §3
# [16] = A CellTox Green Cytotoxicity Assay to monitor cytotoxicity in HepG2 cells - 40 hour (AID 1224879); details: CellTox Green fluorescence; series mostly up to 76.8 µM; also: nearly all actives have a fitted effect of over 40% in size
# Procedure, shortened: as §6
# [17] = A CellTox Green Cytotoxicity Assay to monitor cytotoxicity in HepG2 cells - 24 hour (AID 1224878); details: CellTox Green fluorescence; series mostly up to 76.8 µM; also: nearly all actives have a fitted effect of over 45% in size; as to Cytotoxicity: % is scaled to controls: 0 for no effect and ±100 for the full control effect
# Procedure, shortened: as §6
# Potency is read from the fitted curve at half-maximal effect; tags tell the direction and shape of the fitted curve or compound fluorescence and quenching.
smiles,measurement,setting,value
O=[N+]([O-])c1cc(N(CCO)CCO)ccc1NCCO,Potency,[1],"inconclusive: 12.7 µM [cytotoxic, full curve] and inconclusive: 14.2 µM [cytotoxic, full curve]"
same,Potency,[2],inactive
same,Potency,[3],active: 50.4 µM and active: 50.5 µM
same,Potency,[4],inactive
same,Potency,[5],"inconclusive: 43.6 µM [falling, partial curve, poor fit]"
same,max response,[6],inactive: 0.623% and inactive: 8.81%
C=CC(=O)OCC1CC2CC1C1CCC(COC(=O)C=C)C21 (configuration not stated),activation (H2AX phosphorylation),[1],inconclusive: 8.24%
same,Potency,[2],inconclusive: 54.9 µM [single point]
same,Potency,[3],"inconclusive: 89.8 µM [rising, partial curve]"
same,Potency,[4],"inconclusive: 43.6 µM [falling, partial curve]"
same,Potency,[7],"inconclusive: 61.6 µM [cytotoxic, single point]"
same,Potency,[8],"inconclusive: 49 µM [falling, single point]"
same,Potency,[9],active: 49 µM
same,Potency,[10],"inconclusive: 54.9 µM [cytotoxic, single point]"
same,Potency,[6],"inconclusive: 54.9 µM [cytotoxic, single point]"
same,Potency,[11],"inconclusive: 43.6 µM [cytotoxic, partial curve]"
same,Potency,[12],active: 49 µM
CCOC(=O)Cn1cccc1-c1nc(-c2ccc(OC)cc2)c(-c2ccc(OC)cc2)s1,Potency,[1],"inconclusive: 49.2 µM [fluorescent, partial curve]"
same,Potency,[2],"inconclusive: 26.8 µM [falling, single point]"
same,Potency,[4],"inconclusive: 19 µM [falling, partial curve, poor fit]"
same,Potency,[8],"inconclusive: 23.9 µM [falling, partial curve, poor fit]"
same,Potency,[11],"inconclusive: 19 µM [cytotoxic, partial curve, poor fit]"
CCOC(=O)[C@H](CCc1ccccc1)N[C@H]1CCc2ccccc2N(CC(=O)O)C1=O,Potency,[1],inconclusive: 61.9 µM
same,Potency,[2],"inconclusive: 23.9 µM [activator, partial curve]"
same,Potency,[3],"inconclusive: 55.2 µM [cytotoxic, single point]"
same,Potency,[4],"inconclusive: 26.8 µM [falling, single point]"
same,Potency,[7],"inconclusive: 26.8 µM [cytotoxic, single point]"
same,Potency,[8],"inconclusive: 26.8 µM [falling, single point]"
same,Potency,[9],"inconclusive: 26.8 µM [activator, single point]"
same,Potency,[10],"inconclusive: 26.8 µM [cytotoxic, single point]"
same,Potency,[5],"inconclusive: 26.8 µM [falling, single point]"
same,Potency,[6],"inconclusive: 26.8 µM [cytotoxic, single point]"
same,Potency,[13],"inconclusive: 26.8 µM [activator, single point]"
same,Potency,[14],active: 26.8 µM
same,Potency,[11],"inconclusive: 26.8 µM [cytotoxic, single point]"
same,Potency,[15],"inconclusive: 8.49 µM [rising, partial curve]"
same,Potency,[12],"inconclusive: 26.8 µM [activator, single point]"
NC(=O)C(=O)N/N=C/c1ccc([N+](=O)[O-])o1,Potency,[1],inconclusive: 55.2 µM [activator]
same,Potency,[2],inactive
same,Potency,[3],"inconclusive: 55.2 µM [rising, single point]"
same,Potency,[16],"inconclusive: 23.9 µM [activator, single point]"
Cc1[nH]nc2c1N=C(c1ccccc1Cl)c1cc([N+](=O)[O-])ccc1N2,Potency,[1],"inconclusive: 40.1 µM [falling, partial curve]"
same,Potency,[2],"inconclusive: 43.6 µM [falling, partial curve]"
same,Potency,[3],active: 80 µM
same,Potency,[4],inactive
same,Potency,[7],"inconclusive: 0.174 µM [cytotoxic, full curve]"
same,Potency,[10],"inconclusive: 9.77 µM [cytotoxic, partial curve]"
same,Potency,[6],"inconclusive: 0.195 µM [cytotoxic, full curve]"
same,Potency,[17],inactive
Cc1ccc2c(Br)cc(Br)c(O)c2n1,Potency,[1],active: 39.1 µM
same,activation,[2],inconclusive: 8.29% [at 35.5 µM]
same,Potency,[3],"inconclusive: 13.9 µM [rising, full curve]"
same,Potency,[7],"inconclusive: 4.77 µM [cytotoxic, full curve]"
same,Potency,[9],"inconclusive: 23.9 µM [activator, partial curve]"
CCCCN(CCCC)c1ccc(C(=O)c2ccccc2C(=O)O)c(O)c1,Potency,[1],"inconclusive: 128 µM [activator, single point]"
same,Potency,[2],"inconclusive: 1.39 µM [rising, full curve]"
same,Potency,[3],"inconclusive: 128 µM [cytotoxic, single point]"
same,Potency,[9],"inconclusive: 55.5 µM [activator, single point]"
same,Potency,[13],"inconclusive: 55.5 µM [activator, single point]"
same,Potency,[17],"inconclusive: 55.5 µM [activator, single point]"
same,Potency,[16],"inconclusive: 55.5 µM [activator, single point]"
same,Potency,[12],"inconclusive: 55.5 µM [activator, single point]"

# — PubChem BioAssay (Tox21)
